Reference: the antibiotic and cytotoxicity screens of Wong et al. (2023)
The other results are listed elsewhere or left out.

How the values were obtained:
HSkMC = human skeletal muscle cells; test: cytotoxicity call (relative viability < 0.9); conditions: 10 µM
HepG2 = test: cytotoxicity call (relative viability < 0.9); conditions: 10 µM
S. aureus RN4220 = test: growth inhibition call (relative growth <= 0.2); conditions: 50 µM

SMILES	cytotoxicity call (HSkMC)	cytotoxicity call (HepG2)	growth inhibition call (S. aureus RN4220)
Cc1noc(C)c1NC(=O)N(C)C[C@@H]1Oc2c(NC(=O)c3cnccn3)cccc2C(=O)N([C@H](C)CO)C[C@@H]1C	inactive	inactive	inactive
C[C@@H]1CN([C@@H](C)CO)C(=O)Cc2cc(NC(=O)C3CCCCC3)ccc2O[C@@H]1CN(C)Cc1ccc(C(=O)Nc2ccccc2N)cc1	inactive	inactive	inactive
CCOC(=O)CCCCCC(=O)Nc1ccc2c(c1)C(=O)N([C@@H](C)CO)C[C@H](C)[C@H](CN(C)C(=O)c1ccccc1)OCCCC[C@H](C)O2	inactive	inactive	inactive
Cc1cc(C(=O)Nc2cccc3c2O[C@@H](CN(C)C(=O)NC(C)C)[C@@H](C)CN([C@@H](C)CO)C3=O)n(C)n1	inactive	inactive	inactive
COc1ccc(CN(C)C[C@@H]2OCCCC[C@H](C)Oc3ccc(NS(=O)(=O)c4cccs4)cc3C(=O)N([C@@H](C)CO)C[C@H]2C)cc1	inactive	inactive	inactive
CO[C@H]1CN(C)C(=O)c2cc(NC(=O)c3ccccc3)ccc2OC[C@@H](C)N(C(=O)CN(C)C)C[C@@H]1C	inactive	inactive	inactive
CCNC(=O)C[C@H]1CC[C@H]2[C@@H](COC[C@@H](O)CN2C(=O)Nc2c(C)noc2C)O1	inactive	inactive	inactive
CCCC(=O)Nc1ccc2c(c1)OC[C@@H](C)N(C(=O)Cc1cccnc1)C[C@@H](C)[C@H](OC)CN(C)C2=O	inactive	inactive	inactive
C[C@@H]1CN([C@H](C)CO)C(=O)c2cc(NC(=O)Nc3ccc4c(c3)OCO4)ccc2O[C@H]1CN(C)Cc1ccc(Oc2ccccc2)cc1	inactive	inactive	inactive
C[C@@H]1CCCCO[C@H](CN(C)S(=O)(=O)c2cccs2)[C@H](C)CN([C@@H](C)CO)C(=O)c2cc(NS(C)(=O)=O)ccc2O1	inactive	inactive	inactive
C[C@H]1CN([C@@H](C)CO)C(=O)c2cccc(NC(=O)Nc3ccc(F)cc3)c2O[C@@H]1CN(C)C(=O)Nc1cccc2ccccc12	inactive	inactive	inactive
C[C@H](CO)N1C[C@H](C)[C@H](CN(C)C(=O)Nc2ccc3c(c2)OCO3)Oc2ncc(C#CC3(O)CCCC3)cc2C1=O	inactive	inactive	inactive
Cc1noc(C)c1NC(=O)Nc1ccc2c(c1)C(=O)N([C@@H](C)CO)C[C@@H](C)[C@H](CN(C)Cc1ccc(C(F)(F)F)cc1)OCCCC[C@@H](C)O2	inactive	inactive	inactive
CCCc1cc(C)[nH]c(=O)c1CNC(=O)c1cc(-c2ccc(N3CCN(C(C)C)CC3)nc2)cc2c1cnn2C(C)C	inactive	active	inactive
CN(Cc1ccc(/C=C/C(=O)Nc2ccc(-c3ccccc3)cc2N)cc1)CC12CC3CC(CC(C3)C1)C2	active	active	inactive
C[C@@H]1CN([C@H](C)CO)C(=O)c2cc(NC(=O)Nc3ccc(F)cc3)ccc2O[C@@H]1CN(C)Cc1ccc(C(F)(F)F)cc1	inactive	inactive	inactive
Cc1noc(C)c1S(=O)(=O)N(C)C[C@H]1OCCCC[C@@H](C)Oc2ccc(NC(=O)Nc3ccc(C(F)(F)F)cc3)cc2C(=O)N([C@H](C)CO)C[C@@H]1C	inactive	active	inactive
O=C(C[C@H]1CC[C@@H]2[C@H](COC[C@@H](O)CN2S(=O)(=O)c2cccc(Cl)c2)O1)N1CCOCC1	inactive	inactive	inactive
COc1ccc(S(=O)(=O)Nc2cccc3c2O[C@H](CN(C)S(=O)(=O)c2ccc(C)cc2)[C@@H](C)CN([C@@H](C)CO)C3=O)cc1	inactive	inactive	inactive
C/C=C/c1ccc2c(c1)O[C@@H](CN(C)C(=O)c1ccc3c(c1)OCO3)[C@@H](C)CN([C@@H](C)CO)S2(=O)=O	inactive	inactive	inactive
COc1ccc(S(=O)(=O)N(C)C[C@@H]2OCCCC[C@H](C)Oc3ccc(NC(=O)C4CCCCC4)cc3C(=O)N([C@@H](C)CO)C[C@@H]2C)cc1	inactive	inactive	inactive
Cc1cc(C)cc(OCC2CNC(=O)O2)c1 (configuration not stated)	inactive	inactive	inactive
COc1ccc(CN(C)C[C@@H]2OCCCC[C@H](C)Oc3ccc(NC(=O)NC4CCCCC4)cc3C(=O)N([C@H](C)CO)C[C@H]2C)cc1	inactive	inactive	inactive
O=C(CCCCCC(=O)N/N=C/[C@@H](O)[C@@H](O)[C@H](O)[C@H](O)CO)NO	inactive	inactive	inactive
